From PubChem BioAssay AID2675 (National Center for Advancing Translational Sciences (NCATS), 2010)
Hit rate of the full screen: of about 280,000 compounds, about 100 (0.036%) were called active. The inconclusive results got no clear call from the source; some entries with a clear call stand among them for comparison. Calls follow the shape of the dose curve; as a rule, active = well fitted inhibition curve with a large enough effect in the signal ratio, with a control signal flat (not every such curve was filed as active); inconclusive = small, poorly fitted or top-dose-only effect, or effect the other way, or a change in a side signal; inactive = no such curve, though single readings can be large or run the other way; the % refers to the signal ratio. Where the call is inconclusive, the potency comes from a doubtful curve fit. A note “side channel” means that the fit belongs to a control or component signal, not to the main read-out.

target: Muscleblind-like protein 1 (Homo sapiens) (UniProt Q9NR56); test: qHTS Assay for Inhibitors of MBNL1-poly(CUG) RNA binding; conditions: TR-FRET MBNL1-His/biotin-(CUG)12 binding, 665/545 ratio; series mostly up to 57.5 µM
In short: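 His-tagged MBNL1 binding to biotinylated (CUG)12 RNA was measured by TR-FRET using terbium anti-His antibody (0.055 ng/ul final) and streptavidin-XL665 (5 nM final). Compounds were titrated 92 nM to 58 uM; 60 min at room temperature.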
Potency is read from the fitted curve at half-maximal effect; tags tell the direction and shape of the fitted curve or compound fluorescence and quenching.

Sequence of UniProt Q9NR56 (Q9NR56 whole entry, looked up): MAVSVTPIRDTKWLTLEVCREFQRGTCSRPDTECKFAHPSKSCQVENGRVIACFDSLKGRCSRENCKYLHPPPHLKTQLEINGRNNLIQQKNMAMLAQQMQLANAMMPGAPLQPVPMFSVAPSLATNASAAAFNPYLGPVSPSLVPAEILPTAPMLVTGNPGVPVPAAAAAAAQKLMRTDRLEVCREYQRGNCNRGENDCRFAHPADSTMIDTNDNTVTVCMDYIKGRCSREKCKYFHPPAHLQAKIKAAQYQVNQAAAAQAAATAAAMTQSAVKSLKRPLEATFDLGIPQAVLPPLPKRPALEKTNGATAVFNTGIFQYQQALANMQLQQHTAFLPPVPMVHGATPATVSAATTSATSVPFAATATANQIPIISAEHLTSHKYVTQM

| SMILES | Potency |
| --- | --- |
| COc1cc(-c2csc(N3CCOCC3)n2)cc(OC)c1OC | inconclusive: 35.5 µM [quencher, side channel, single point] |
| CCCC(c1nnnn1CC1CCCO1)N1CCN(c2nc3ccccc3s2)CC1 (configuration not stated) | inconclusive: 0.158 µM [quencher, side channel, full curve, poor fit] |
| O=C(COc1ccc(Br)cc1CNCCc1ccccc1)NCc1ccccc1 | inactive |
| O=S1(=O)CC(O)C(N=Nc2c(O)n(Cc3ccccc3)c3ccccc23)C1 (configuration not stated) | inactive |
| CC(O)C(C(=O)OCc1ccc([N+](=O)[O-])cc1)N1C(=O)c2ccccc2C1=O (configuration not stated) | inconclusive: 31.6 µM [quencher, side channel, partial curve] |
| NC(=O)c1c(NC(=O)Cn2cnc([N+](=O)[O-])n2)sc2c1CCCC2 | inconclusive: 12.6 µM [quencher, side channel, partial curve] |
| O=C(COC(=O)CC1CCCC1)Nc1cc2c(cc1Cl)C(=O)c1ccccc1C2=O | inconclusive: 20 µM [quencher, side channel, partial curve] |
| O=C1c2ccccc2C(=O)c2c1ccc(C(=O)N1CCCCC1)c2NCCO | inconclusive: 1.26 µM [quencher, full curve, poor fit] |
| COc1ccc([N+](=O)[O-])c(OC)c1C(=O)NC(=O)Nc1c(F)c(F)c(F)c(F)c1F | inconclusive: 15.8 µM [quencher, side channel, single point] |
| COCCCN(C(=S)Nc1ccc(OC)cc1)C(C)c1ccncc1 (configuration not stated) | inactive |
| CN(/N=C/c1ccccc1O)C(=S)c1ccccc1 | inconclusive: 35.5 µM [quencher, side channel, single point] |
| COc1cccc(C2=NOC(C(=O)Nc3cc(OC)c(OC)c(OC)c3)C2)c1 (configuration not stated) | inactive |
| Cc1cc2c(NC(=O)Nc3ccc(F)cc3)cccc2nn1 | inconclusive: 28.2 µM [quencher, side channel, partial curve] |
| O=C(CC(Nc1cccc(Cl)c1Cl)C(=O)O)c1ccccc1 (configuration not stated) | inactive |
| N#CCSc1nc(-c2ccccc2)nc2ccccc12 | inactive |
| COC1=NS(=O)(=O)c2ccccc21 | inconclusive: 3.16 µM [fluorescent, side channel, full curve] |
| CC1(OC(=O)CCc2ccccc2)C(=O)C=C2C=C(c3ccc(C#N)cc3)N(CC3CC3)C=C2C1=O (configuration not stated) | inconclusive: 35.5 µM [quencher, side channel, single point] |
| Cc1nc2sc(C(=O)c3ccccc3)c(N)c2c2c1CCCC2 | inconclusive: 14.1 µM [quencher, side channel, partial curve] |
| O=C(NCCc1cccc(F)c1)/C(=C/c1cccnc1)NC(=O)c1ccccc1 | inactive |
| CC(=O)N/C(N)=N/c1nc2cc(C)ccc2o1 | inactive |
| Cc1ccc(C)c(OCC(O)CN2CCN(CCN3C(=O)c4cccc5cccc(c45)C3=O)CC2)c1 (configuration not stated) | inconclusive: 11.2 µM [quencher, side channel, partial curve] |
| Clc1ccccc1Nc1nc(-c2cccnc2)cs1 | inconclusive: 39.8 µM [quencher, side channel, single point] |
| N=c1c2c(-c3ccccc3)c(-c3ccccc3)n(Cc3ccco3)c2ncn1CCCN1CCOCC1 | inactive |

| SMILES | Potency |
| --- | --- |
| COc1ccc(-c2cc(OC(=O)c3ccc(F)cc3)c3c(C)oc(C)c3c(=O)c2)cc1 | inconclusive: 31.6 µM [quencher, side channel, single point] |
| O=C(NCCO)c1ccc(Oc2ccc(C(F)(F)F)cc2[N+](=O)[O-])cc1 | inactive |
| CC(C)N1CCc2c(sc(NC(=S)NC(=O)c3ccccc3)c2C#N)C1 | inconclusive: 20 µM [quencher, side channel, partial curve] |
| C=CCn1cnc2c(c1=O)c1nc3ccccc3nc1n2/N=C/c1cccc(OC)c1 | inconclusive: 3.98 µM [quencher, side channel, full curve, poor fit] |
| O=C(NNC(=S)NC(=O)c1ccc(Br)cc1)c1ccc([N+](=O)[O-])cc1 | inactive |
| COc1ccc2nc(Sc3c([N+](=O)[O-])nc(C)n3Cc3ccccc3)[nH]c2c1 | inactive |
| Cc1cc(C)n2nc(SCN3C(=O)c4ccccc4C3=O)nc2n1 | inconclusive: 22.4 µM [quencher, side channel, partial curve] |
| COC(CNc1ncnc2sc(-c3ccccc3)cc12)OC | inconclusive: 17.8 µM [quencher, side channel, partial curve] |
| CN(/N=C/c1ccc([N+](=O)[O-])o1)c1ccccc1 | inconclusive: 31.6 µM [quencher, side channel, single point] |
| COc1ccc(-n2nc(C(C)=O)c(=O)[nH]c2=O)cc1 | inconclusive: 22.4 µM [quencher, side channel, partial curve] |
| Cc1ccc2c(c1)C(c1ccccc1)N(C(=O)c1cccc([N+](=O)[O-])c1)CC(=O)N2 (configuration not stated) | inconclusive: 14.1 µM [quencher, side channel, partial curve] |
| Cc1ccc(C(=O)c2ccc(C)cc2)cc1 | inactive |
| COc1ccccc1N(/N=C1\Sc2ccccc2C1=O)C(C)=O | inconclusive: 17.8 µM [quencher, side channel, partial curve] |
| O=C(Nc1ccc2nsnc2c1)NC1CCCCC1 | inconclusive: 15.8 µM [quencher, partial curve] |
| CCCCc1ccc(NC(=O)COc2ccc(C(=O)Nc3ccccc3OCC)cc2)cc1 | inactive |
| CN1CCN(C(=S)c2cn(Cc3cccc(F)c3)c3ccccc23)CC1 | inactive |
| CC(C)(C)c1ccc(/C=C/C(=O)N2CCc3ccccc3C2)cc1 | inactive |
| CCN(CC)CCNC(=O)c1cc2cc3ccc(OC)cc3nc2o1 | inconclusive: 14.1 µM [quencher, side channel, partial curve] |
| O=C(N/N=C/C=C\c1ccco1)c1ccccn1 | inactive |
| CCCCNS(=O)(=O)c1ccc2nc(-c3cccnc3)cc(C(=O)NCCCN(CC)CC)c2c1 | inconclusive: 14.1 µM [quencher, side channel, partial curve] |
| COc1ccc(CNC(=S)N/N=C/c2ccncc2)cc1 | inactive |
| CSc1ccc(S(=O)(=O)N2CCC(C(=O)NCCc3ccccc3)CC2)cc1 | inactive |
| COc1ccc(NC(=O)CCN2C(=O)c3ccncc3C2=O)cc1OC | inconclusive: 20 µM [quencher, side channel, partial curve] |

| SMILES | Potency |
| --- | --- |
| Cc1cccc(Nc2ccc(NCc3ccccc3)nn2)c1 | inconclusive: 20 µM [quencher, side channel, partial curve] |
| CC(Oc1ccc([N+](=O)[O-])cc1)C(=O)NCC1CCCO1 (configuration not stated) | inconclusive: 31.6 µM [quencher, side channel, single point] |
| COC(=O)c1cc(C(=O)Nc2ccc(C)cn2)cc([N+](=O)[O-])c1 | inconclusive: 12.6 µM [quencher, partial curve] |
| CCOC(=O)c1[nH]c2ccccc2c1NC(=S)Nc1cccc(C)c1C | inconclusive: 39.8 µM [quencher, side channel, partial curve, poor fit] |
| COc1ccc(NC(=O)C(CC(=O)O)C(C)c2ccccc2)cc1 (configuration not stated) | inactive |
| COc1ccc(Cn2nnc3c(=O)[nH]c(C(=O)NCCc4ccc(F)cc4)nc32)cc1OC | inconclusive: 31.6 µM [quencher, side channel, partial curve] |
| O=C(O)CCSc1nc2ccccc2s1 | inactive |
| Cn1c(SCC(=O)Nc2nccs2)nnc1-c1ccc(S(=O)(=O)N2CCCC2)cc1 | inactive |
| O=C(N/N=C/c1cc([N+](=O)[O-])ccc1N1CCNCC1)c1ccc([N+](=O)[O-])cc1 | inconclusive: 1.41 µM [quencher, side channel, partial curve] |
| Cc1ccc(N2CC(=O)N(NC(=O)c3sc4nc(C)cc(C)c4c3N)CC2=O)cc1 | inactive |
| CCc1cccc(NS(=O)(=O)c2ccc3c(c2)N(C)CCO3)c1 | inactive |
| O=C(O)c1cccc(-n2c(/C=C/c3ccc([N+](=O)[O-])cc3)nc3ccccc3c2=O)c1 | inconclusive: 12.6 µM [quencher, side channel, partial curve] |
| Cc1cccc(OC(C)C(=O)NCc2ccc(S(N)(=O)=O)cc2)c1 (configuration not stated) | inactive |
| Cn1c(-c2ccccc2)cnc1N | inactive |
| O=[N+]([O-])c1ccc(C[n+]2cccc3c4ccccc4ccc32)cc1 | inconclusive: 7.94 µM [quencher, side channel, partial curve] |
| Cc1ccc(NC(=O)c2cc(S(=O)(=O)N(C)C)ccc2N2CCCC2)cc1F | inactive |
| O=C(N/N=C1\C/C(=N\NC(=O)c2ccncc2)c2ccccc21)c1ccncc1 | inconclusive: 8.91 µM [quencher, side channel, partial curve] |
| C/C(=N\NC(=O)C(O)c1ccccc1)c1ccc(Br)s1 (configuration not stated) | inconclusive: 39.8 µM [quencher, side channel, partial curve, poor fit] |
| COc1ccccc1N1C(=O)CC(Sc2n[nH]c(-c3cccc(C)c3)n2)C1=O (configuration not stated) | inactive |
| Cn1c(=O)c2c(ncn2CC(=O)OCC(=O)NC(c2ccccc2)c2ccccc2)n(C)c1=O | inconclusive: 4.47 µM [inhibitor, full curve, poor fit] |
| COc1ccc(S(=O)(=O)NNC(=O)Nc2ccc(C)cc2C)c(OC)c1 | inactive |
